Laboratory results as given in a compilation of properties of binary mixtures (doi:10.1021/je050444g).
Some of these densities may be calculated back from excess volumes.

Test: xn = mol fraction of the nth substance listed
Details: 308.15 K, 100 kPa

CC1COC(=O)O1 (stereo unspecified) + CS(C)=O
Details | mass density [kg/m3]
x2 = 0.0506 | 1184
x2 = 0.1139 | 1177.8
x2 = 0.2014 | 1168.9
x2 = 0.2976 | 1159.1
x2 = 0.4759 | 1140.6
x2 = 0.5376 | 1134.1
x2 = 0.6343 | 1123.9
x2 = 0.8643 | 1099.6
x2 = 0.9376 | 1091.8

CCOC(=O)OCC + CS(C)=O
Details | mass density [kg/m3]
x2 = 0.0902 | 965.1
x2 = 0.2655 | 980.8
x2 = 0.3678 | 991
x2 = 0.468 | 1001.9
x2 = 0.5579 | 1012.7
x2 = 0.6013 | 1018.3
x2 = 0.6456 | 1024.2
x2 = 0.7167 | 1034.4
x2 = 0.8439 | 1054.9
x2 = 0.9239 | 1069.7

CS(C)=O + COC(=O)OC
Details | mass density [kg/m3]
x1 = 0.2791 | 1060.8
x1 = 0.371 | 1064
x1 = 0.5007 | 1068.2
x1 = 0.5479 | 1069.8
x1 = 0.626 | 1072.3
x1 = 0.8572 | 1080
x1 = 0.9283 | 1082.6
